The campaign covered roughly 7,900 compounds. About 400 (5.1%) showed an effect of 50% or more. This is one part of the list.
What follows are compounds tested against Parkinson's disease protein 7 (PARK7/DJ1) (human, UniProt Q99497) (assay: primary screen, percent inhibition; read as competition with a fluorescent probe by fluorescence polarization; higher = more effect of the substance). Conditions: 100 µM.
Outline: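 Covalent fragments at 100 μM final were incubated 2 h with 0.2 μM PARK7, then 20 nM probe JYQ-107 added for a further 2 h. Fluorescence polarization read at 480/520 nm; relative FP loss versus reference controls gave remaining enzyme activity.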

Sequence of Parkinson's disease protein 7 (PARK7/DJ1) (Q99497 whole entry, looked up, the tested form may be a part): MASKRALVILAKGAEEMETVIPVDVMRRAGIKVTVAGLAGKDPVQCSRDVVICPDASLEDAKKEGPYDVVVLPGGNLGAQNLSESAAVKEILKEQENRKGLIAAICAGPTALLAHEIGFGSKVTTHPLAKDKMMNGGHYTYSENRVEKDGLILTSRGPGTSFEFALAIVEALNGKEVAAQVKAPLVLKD

Row | Structure (SMILES) | Inhibition %
1 | C=CC(=O)N[C@H]1C[C@H](OC)C1 | 5.99%
2 | Cc1nc(C=CC(=O)N2CCCCCC2)cs1 | 4.8%
3 | C=CC(=O)N1CCCC(c2nc(C)c(C)s2)C1 (centres unmarked) | 6.18%
4 | C=CC(=O)N1CC(=O)N(C2CC2)C1 | 2.52%
5 | Cc1c(B2OC(C)(C)C(C)(C)O2)nnn1C | 9.99%
6 | C=CC(=O)N1CCC(C)(C2CC2)CC1 | 8.76%
7 | N#CC(=Cc1ccc(-c2ccccc2)cc1)C(N)=O | 6.12%
8 | C=CC(=O)N1CC2(CCOCC2)CC1C (centres unmarked) | 15.7%
9 | CNc1nccnc1C#N | 3.27%
10 | N#CC(=Cc1cccc(-c2ccncc2)c1)C(=O)O | 1.36%
11 | C=CC(=O)N1CCC(CCC#N)CC1 | 8.36%
12 | C=CC(=O)N1CCCN(CC2CCCO2)CC1 (centres unmarked) | 13.1%
13 | CCOc1ccc2ccccc2c1C=C(C#N)C(N)=O | 5.94%
14 | CN(C)C(=O)Sc1ccc2c(c1)CCCC2=O | 4.76%
15 | CC(C)Cc1nc(C#N)c(NCc2ccncc2)o1 | 6.94%
16 | COC(=O)c1sccc1NC(=O)CCl | 3.83%
17 | O=C(CCl)NCc1ccco1 | 10.2%
18 | C=CC(=O)Nc1ccc(N(C)C)cc1 | 15.3%
19 | CN(CCOc1ccccc1F)C(=O)CCl | 94.1%
20 | CNC(=O)c1ccc(B2OC(C)(C)C(C)(C)O2)cc1C | 1.99%
21 | C=CC(=O)N1CCCC(CC#N)C1 (centres unmarked) | 5.07%
22 | COC(=O)c1cccc(S(=O)(=O)F)n1 | 7.02%
23 | C=CC(=O)NC1CCN(C)c2ccccc21 (centres unmarked) | 13.1%
24 | OB(O)c1cc(F)ccc1OCC1CCOC1 (centres unmarked) | 4.59%
25 | CC1(C)C(=O)NC1c1cccs1 (centres unmarked) | 5.37%
26 | O=C(O)Cc1sc(O)nc1O | 8.54%

Row | Structure (SMILES) | Inhibition %
27 | C=CC(=O)N1CC2(CCC2)C1c1ccco1 (centres unmarked) | 6.4%
28 | C=CC(=O)NCc1ccnc(C(F)(F)F)c1 | 11.3%
29 | c1ccn(CCC2CO2)c1 (centres unmarked) | 4.81%
30 | Cc1ccc(C=CS(=O)(=O)Nc2c(C)c(C)nn2C)cc1 | 8.21%
31 | C=CC(=O)NC(C(=O)N1CCCC(C)C1)c1cnn(C)c1 (centres unmarked) | 1.49%
32 | CC(C)(C)OC(=O)NCc1ccsc1B1OC(C)(C)C(C)(C)O1 | -0.214%
33 | C=CC(=O)NC1CCC(C)(CC)CC1 (centres unmarked) | 6.32%
34 | C=CC(=O)N1CCC(c2ccon2)CC1 | 9.48%
35 | C=CC(=O)N1CC[C@@H](Oc2ccccc2)C1 | 3.37%
36 | O=C(CCl)NCCCN1CCCCCC1=O | 11.7%
37 | C=CC(=O)N1CCC(C)(C)c2ccccc21 | -0.137%
38 | CNC(=O)c1ccc(NC(=O)CCl)cc1 | 16.6%
39 | Cc1ccc(C=CC(=O)N2CCN(c3nccs3)CC2)o1 | 5.55%
40 | CC1CCC(NC(=O)Cn2cnc(C#N)n2)CC1 (centres unmarked) | 6.94%
41 | O=C(CCl)Nc1cccc2c1N=S=N2 | 24.9%
42 | N#Cc1cnc(NCC(F)F)cn1 | 4%
43 | O=C(CO)NC1CN(c2ccc(F)cc2)C1=O (centres unmarked) | 5.55%
44 | C=CC(=O)N1CCCC1c1nccs1 (centres unmarked) | 10%
45 | O=S1(=O)CC=C(Cl)C1 | 3.43%
46 | C=CC(=O)NC1(COC)CCOCC1 | 11.5%
47 | CC(C)(C)OC(=O)c1cc2ccc(B3OC(C)(C)C(C)(C)O3)cc2[nH]1 | 7.8%
48 | C=CC(=O)N1CCCc2ccccc2C1 | 10.7%
49 | COc1cc(NC(=O)CCl)c(C)cc1[N+](=O)[O-] | 5.4%
50 | C=CC(=O)NCc1cscn1 | 4.74%
51 | COCCNC(=O)C(C#N)=Cc1sccc1C | 3.38%
52 | OCC1(CC2CO2)CCCC1 (centres unmarked) | 16.1%

Row | Structure (SMILES) | Inhibition %
53 | C=CC(=O)NCc1c(C)oc2ccccc12 | 10.7%
54 | C=CC(=O)NC1CCC(F)C1 (centres unmarked) | 9.01%
55 | N#Cc1nccc2c1CCCC2 | 6.94%
56 | Cn1nc(-c2ccc(F)cc2)oc1=O | -2.46%
57 | Cc1ccc(C#N)nc1N1CCCOC(C)C1 (centres unmarked) | 42.8%
58 | COc1cc(C)c(C(C)C)cc1S(=O)(=O)n1cnc(C)c1 | 11.1%
59 | COC(=O)c1c(NC(=O)CCl)sc2c1CCCCC2 | 8.32%
60 | COC(=O)C1CC(=CB2OC(C)(C)C(C)(C)O2)C1 (centres unmarked) | 29.2%
61 | CCOc1ccc(C)cc1S(=O)(=O)n1nc(C)cc1C | 2.18%
62 | NC(=O)C1CCCC1NS(=O)(=O)C=Cc1ccccc1 (centres unmarked) | 4.03%
63 | C=CC(=O)N[C@@H]1CCC(=O)N[C@H]1C(C)(C)C | 6.16%
64 | Cc1cc(C)n(S(=O)(=O)c2ccc(F)c(C)c2)n1 | 6.78%
65 | C=CC(=O)N(C)C1CCC(C(C)C)CC1 (centres unmarked) | 7.85%
66 | Cn1cnc(C=C(C#N)C(=O)NCCc2ccccc2)c1 | 2.37%
67 | C=CC(=O)N1CCCC1c1ncccn1 (centres unmarked) | 10.5%
68 | O=c1[nH]c(-c2cccnc2)no1 | 12.5%
69 | O=C1CCSC(=O)N1 | 4.69%
70 | C=CC(=O)Nc1ccc2ccc(=O)n(C)c2c1 | 7.33%
71 | Cc1ccc2cccc(OC(=O)N3CCCC3)c2n1 | 13.5%
72 | O=C(CCl)NCCCN1CCCC1=O | 3.35%
73 | N#Cc1cccc(NC(=O)CN2CCSC2=O)c1 | 9.19%
74 | Cc1ccc(F)c(NC(=O)CN2CCSC2=O)c1 | 5.37%
75 | O=C(Nc1cccc(S(=O)(=O)F)c1)C1(CF)CCOCC1 | 95.3%
76 | CN(CC(F)F)S(=O)(=O)c1cccnc1C#N | 5.21%
77 | C=CC(=O)NC12CCC(F)(CC1)CC2 | 9.53%
78 | CC1(C)OB(C=C2CCOCC2)OC1(C)C | 9.49%

Row | Structure (SMILES) | Inhibition %
79 | Cc1ccc(OCCCn2cnc(C#N)n2)cc1C | 3.96%
80 | C=CC(=O)N1CCC(c2nnc3n2CCC3)CC1 | 7.52%
81 | CN(C)c1ccc(C=C(C#N)C(=O)Nc2nccs2)cc1 | 10.4%
82 | Cc1cccc(Cc2cnc(NC(=O)CCl)s2)c1 | 41%
83 | C=CC(=O)N1CCN(CC)C(=O)C1CC (centres unmarked) | 7.08%
84 | CC1CC(N2CCCc3ccccc32)C(=O)O1 (centres unmarked) | 12.8%
85 | COC[C@@H]1C[C@@H](OC)CN1C(=O)c1c[nH]c(C#N)c1 | 6.56%
86 | C=C(C)c1nc(C#N)c(N2CCC(C(N)=O)CC2)o1 | 6.94%
87 | C=CC(=O)N1CC[C@@H]2COC(=O)N[C@H]2C1 | 8.41%
88 | Cn1cc(OS(=O)(=O)c2cn(C)c(Cl)n2)cn1 | 15.9%
89 | Clc1ccccc1CN1CCC(C2OCCO2)CC1 | 6.11%
90 | Cc1cc2c(=S)nc[nH]c2s1 | 28.3%
91 | CNCc1cc(B2OC(C)(C)C(C)(C)O2)co1.Cl | 9.09%
92 | CN(CC1(O)CCCC1)C(=O)c1cccnc1S | 5.79%
93 | C=CC(=O)NC1CCN(C(=O)c2ccccc2F)CC1 | 10.3%
94 | C=CC(=O)N[C@H]1CCO[C@@H]1c1nccn1CC | 11.3%
95 | O=C(CCl)NC(=O)c1cccc([N+](=O)[O-])c1 | 31.5%
96 | C=CC(=O)N1CCCCC1c1nc(COC)n[nH]1 (centres unmarked) | 5.76%
97 | C=CC(=O)NC(C)C(=O)N1CCCCC1C (centres unmarked) | -0.998%
98 | Cc1csc(C#N)n1 | 5.21%
99 | SCc1cccnc1 | 16.8%
100 | C=CC(=O)Nc1ccc(OCC)c(OC)c1 | 12.4%
101 | C=CC(=O)N1CCC[C@H]1C(=O)NC | 4.18%
102 | CN(Cc1cccc(B(O)O)c1)c1ccccc1.Cl | 8.29%
103 | C=CC(=O)N1CCOc2c(F)ccc(F)c21 | 9%
104 | Cc1cccc(Cn2cnc(C#N)n2)c1 | 4.04%

Row | Structure (SMILES) | Inhibition %
105 | CN(C)CCc1ccc(B(O)O)cc1.Cl | 2.57%
106 | O=C(CCl)Nc1cccc(Cl)c1 | 34.6%
107 | C=CC(=O)N1CC2(CCOCC2)C1C1CC1 (centres unmarked) | 9.93%
108 | Cc1cc(NC(=O)CCl)n(-c2ccccc2)n1 | 29.6%
109 | Cl.N#Cc1cccc(N2CCNCC2)n1 | 13.3%
110 | O=C(O)c1cccc(N2C(=O)CCC2=O)c1 | 5.18%
111 | C=CC(=O)N1CC(c2cnn(C)c2)C2(CCOCC2)C1 (centres unmarked) | 3.98%
112 | Cc1cccc(CNc2ccc(C)c(C#N)n2)n1 | 4.72%
113 | C=CC(=O)N1CC(C)S(=O)(=O)C(C)C1 (centres unmarked) | 5.08%
114 | CC1C(=O)N(CCS(=O)(=O)F)C(=O)N1c1ccccc1 (centres unmarked) | 17.9%
115 | C=CC(=O)N1CCC2(CCC2)S(=O)(=O)CC1 | 8.9%
116 | Cc1nn(C)c(Cl)c1C=CC(=O)N1CCC(CN)C1.Cl (centres unmarked) | 13.5%
117 | CC1(C)OB(c2cccc(C3CC(F)(F)C3(F)F)c2)OC1(C)C (centres unmarked) | -0.414%
118 | C=CC(=O)N1CCN(S(C)(=O)=O)[C@@H](C)C1 | 8.8%
119 | C=CC(=O)Nc1nc(C)cc(C)n1 | -3.57%
120 | Cn1c(S)nc2ccccc2c1=O | 3.7%
121 | N#Cc1ccc(CNC(=O)CCl)cc1 | 5.15%
122 | CCN(Cc1ccc(Br)s1)C(=O)CCl | 12.9%
123 | C=CC(=O)N1CCC(c2nc(C)c(C(=O)O)s2)CC1 | 5.41%
124 | COC(=O)Cc1ccc(Oc2ccnc(C#N)c2)cc1 | 10.8%
125 | C=CC(=O)Nc1c(OC)ccc2c1CCC2 | 7.34%
126 | OB(O)c1cccc2c1OCCCO2 | 3.03%
127 | O=S(=O)(F)c1ccc(Nc2ccc(F)cc2)nc1 | 2.34%
128 | CN(CCC1CCOCC1)c1nc2ccccn2c1C#N | 5.08%

From publication PMC9574860, “Chemical Toolkit for PARK7: Potent, Selective, and High-Throughput” (Journal of Medicinal Chemistry, 2022)
